# According to PubChem BioAssay AID504832 (National Center for Advancing Translational Sciences (NCATS), 2011):
# Screen size: about 310,000 compounds; about 18,000 (5.8%) were called active. The inconclusive results got no clear call from the source; some entries with a clear call stand among them for comparison. Calls follow the shape of the dose curve; as a rule, active = well fitted inhibition curve with a large enough effect; inconclusive = small, poorly fitted or top-dose-only effect, or another doubt; inactive = no such curve, though single readings can be large or run the other way. No potency is given beside an inconclusive call; the fits are too rough.
# Assay: Primary qHTS for delayed death inhibitors of the malarial parasite plastid, 48 hour incubation
# Conditions: P. falciparum luciferase growth in erythrocytes; series mostly up to 28.7 µM; activity change, negative = inhibition: at the top concentration
# In short: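 Cell-based growth assay: transgenic P. falciparum expressing firefly luciferase, cultured in red cells within RPMI 1640 containing 0.5% w/v Albumax, 24 mM bicarbonate and gentamycin. A drop in luciferase activity indicates inhibition.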
# % is scaled to controls: 0 for no effect and ±100 for the full control effect; potency is read from the fitted curve at half-maximal effect; tags tell the direction and shape of the fitted curve.
SMILES,Potency,"activity change, negative = inhibition"
O=C(Nc1ccccc1C(=O)NCc1ccc(Cl)cc1)c1ccco1,"inconclusive [inhibitor, single point]",
CCOc1ccc2c(c1)n([O-])c1c([n+]2=O)CCCC1,,inactive: 27.5%
N=Nc1c(O)n(CC(=O)Nc2ccccc2)c2ccccc12,"inconclusive [inhibitor, full curve]",
O=c1cc(O)c2sc(Nc3ccc(F)c(Cl)c3)nc2[nH]1,"inconclusive [inhibitor, single point]",
COc1cc2c(cc1OC)CN(C(=O)C1CCCN(C(=O)c3ccc(Cl)cc3)C1)CC2 (stereo unspecified),"inconclusive [inhibitor, partial curve, poor fit]",
O=C(Nc1ccc2c(c1)OCO2)NC1CCN(Cc2ccccc2)CC1,"inconclusive [inhibitor, partial curve, poor fit]",
CCOC(=O)N1CCN(c2cc(=O)n(-c3ccc(C)cc3)c(=O)[nH]2)CC1,,inactive: -6.03%
Cc1nonc1OC(C)CNc1ccc([N+](=O)[O-])cc1 (stereo unspecified),active: 3.7 µM,
O=C(c1ccco1)N1CCN(C(c2ccccn2)c2nnnn2C2CCCC2)CC1 (stereo unspecified),,inactive: 97.4%
CCN(CC)S(=O)(=O)c1cccc(-c2csc(C)n2)c1,"inconclusive [inhibitor, partial curve, poor fit]",
CCN(CC)CCNC(=O)C1(O)c2cc(Br)ccc2NC(=O)N1c1c(F)cccc1F (stereo unspecified),,inactive: -8.02% [at 0.00184 µM]
c1ccc2nc(-c3ccncc3)ccc2c1,,inactive: 74.1%
O=c1c2ccccc2nc(COc2ccccc2)n1/N=C/c1ccco1,,inactive: 118%
Cc1cc(C)n(-c2nc(NCCCN(C)C)c3c4c(sc3n2)COC(C)(C)C4)n1,"inconclusive [inhibitor, single point]",
O=C(CN1CCc2ccccc2C1)Nc1ccc(OC(F)(F)F)cc1,,inactive: 36.1%
O=C(c1cccn2c(=O)c3cc(Cl)ccc3nc12)N1CCC2(CC1)OCCO2,"inconclusive [inhibitor, single point]",
O=c1c2ccccc2c(C=NCCc2ccccc2)c(O)n1Cc1ccccc1,"inconclusive [inhibitor, single point]",
Cc1ccc(S(=O)(=O)N2CCCC(C(=O)NCCC(C)C)C2)cc1 (stereo unspecified),"inconclusive [inhibitor, partial curve, poor fit]",
COc1cc(C2=Nc3c(c(C)nn3-c3ccccc3)P(=O)(N3CCOCC3)O2)cc(OC)c1OC (stereo unspecified),"inconclusive [inhibitor, partial curve]",
O=C(Nc1cccc(Cl)c1)c1ccc(F)c(S(=O)(=O)N2CCN(c3ccccn3)CC2)c1,"inconclusive [inhibitor, single point]",
Cc1ccc(OCC(=O)Nc2ccc3oc(=O)ccc3c2)c(C)c1,,inactive: 0%
CCn1c(C)cc(/C=C2/NC(=O)N(Cc3ccccc3F)C2=O)c1C,active: 11.7 µM,

SMILES,Potency,"activity change, negative = inhibition"
Cc1cccn2c(=O)c(/C=C(\C#N)C(=O)NCc3ccco3)c(N3CCCCCC3)nc12,"inconclusive [inhibitor, partial curve]",
C[n+]1ccccc1/C=C/c1ccc(C#N)cc1,,inactive: 14.7%
CCc1nc2ccccc2n1Cc1ccccc1OC,"inconclusive [inhibitor, full curve, poor fit]",
CN(Cc1ccccc1)C(=O)CSc1nc2cc(C(=O)N3CCC(C(N)=O)CC3)ccc2c(=O)n1-c1ccccc1,"inconclusive [inhibitor, partial curve, poor fit]",
O=C(Nc1nccs1)c1ccc2c(=O)n3c(nc2c1)CCCCC3,,inactive: 145%
CCc1ccc(N=C2NC(=O)/C(=C/c3cc(OC)c(O)c(OC)c3)S2)cc1,"inconclusive [inhibitor, partial curve, poor fit]",
COc1ccc(C(C(=O)NCc2ccccc2)N(Cc2ccco2)C(=O)c2snc(C(N)=O)c2N)cc1 (stereo unspecified),"inconclusive [inhibitor, partial curve]",
CN=C(c1ccc(C)cc1)n1c(=S)nc(-c2ccc(C)cc2)n(C)c1=S,"inconclusive [inhibitor, partial curve]",
C=CCNC(=S)NNC(=O)c1ccc(=O)n(Cc2ccc(Cl)cc2Cl)c1,,inactive: -14.6%
Cc1ccc2c(Cl)c(C(=O)NCC(c3ccco3)N3CCCC3)sc2c1 (stereo unspecified),"inconclusive [inhibitor, single point]",
O=c1oc2ccccc2c(Nc2ccc3ccccc3c2)c1[N+](=O)[O-],"inconclusive [inhibitor, single point]",
CCCn1c(C)cc(/C=C(\C#N)C(=O)OCC(=O)Nc2cccc(S(N)(=O)=O)c2)c1C,"inconclusive [inhibitor, partial curve]",
Cc1ccc(Nc2nc(-c3ccccc3)cs2)nc1,,inactive: 138%
COC(=O)Cn1c(C)c(/C=C/c2cc[n+](C)cc2)c2ccccc21,"inconclusive [inhibitor, full curve, poor fit]",
CCCC(=O)C1=C(O)C(C(=O)OC)C(C)(C)CC1=NCc1ccccc1 (stereo unspecified),"inconclusive [inhibitor, partial curve, poor fit]",
CN(C)CCNC(=O)c1cc2sc3ccccc3c2s1,"inconclusive [inhibitor, single point]",
COc1cc(/C=C/C(=O)OCC(=O)Nc2ccc(S(=O)(=O)N3CCCC3)cc2)ccc1O,"inconclusive [inhibitor, single point]",
O=C1Nc2ccccc2/C1=C/c1cnc[nH]1,"inconclusive [inhibitor, partial curve, poor fit]",
CN(C)CCN1C(=O)C2C(C(=O)Nc3cc(Cl)cc(Cl)c3)C3C=CC2(O3)C1C(=O)NC1CCCCC1 (stereo unspecified),"inconclusive [inhibitor, partial curve, poor fit]",
CCCc1noc(-c2ccc(-c3ccccc3)cc2)n1,,inactive: 96%
CCNc1nnc(SCC(=O)c2c(N)n(C3CC3)c(=O)[nH]c2=O)s1,"inconclusive [inhibitor, single point]",
COc1ccc(-c2noc(-c3ccccc3C(=O)Nc3cccnc3)n2)cc1,"inconclusive [inhibitor, single point]",

SMILES,Potency,"activity change, negative = inhibition"
CCOCCCNC(=O)C(c1ccc(OC)cc1)N(Cc1ccc2c(c1)OCO2)C(=O)c1ccccc1O (stereo unspecified),"inconclusive [inhibitor, single point]",
CCCCn1nnnc1NCc1ccc(C)s1,,inactive: -1.03%
CCC(C)(C)NC(=O)CN(Cc1ccc2c(c1)OCO2)C(=O)CCC(=O)Nc1ccccn1,"inconclusive [inhibitor, partial curve, poor fit]",
N#CCc1nn2c(-c3ccccc3)ccnc2c1C#N,"inconclusive [inhibitor, partial curve, poor fit]",
O=c1[nH]c2ccc(Cl)cc2c(-c2ccccc2)c1N1CCN(CCO)CC1,"inconclusive [inhibitor, partial curve, poor fit]",
O=C1OC(c2ccco2)=N/C1=C\c1ccc(-c2cccc(C(F)(F)F)c2)o1,,inactive: -3.62%
CCCOc1cccc(C2C(C(=O)c3ccc(C)o3)=C(O)C(=O)N2c2nc(C)c(C(C)=O)s2)c1 (stereo unspecified),,inactive: -17.9%
COc1ccc(C(C)=O)cc1CC(C(=O)c1ccc(F)cc1)N(C)C (stereo unspecified),"inconclusive [inhibitor, single point]",
Nc1cc(=O)[nH]c(SCC(=O)Nc2ccc3c(c2)CCC3)n1,"inconclusive [inhibitor, full curve, poor fit]",
O=C(c1ccco1)N(CC1CCCO1)c1nc(-c2ccccc2)cs1 (stereo unspecified),"inconclusive [inhibitor, single point]",
COc1cccc(/C=N/NC(=O)C(=O)NCc2ccco2)c1O,,inactive: -25.3%
CCn1cc(C(=O)NCc2ccc3c(c2)OCO3)c(=O)c2cc(F)c(N3CCN(C(=O)c4ccco4)CC3)cc21,active: 8.28 µM,
COc1ccc(OC)c(-c2csc(N(CC3CCCO3)C(=O)C3CCCCC3)n2)c1 (stereo unspecified),active: 2.94 µM,
COc1ccc(-c2cc(=O)oc3cc(OCC(=O)NCCCn4ccnc4)ccc23)cc1,"inconclusive [inhibitor, partial curve, poor fit]",
COC(=O)C1=C(C)N(CCc2ccccc2)C(=O)C1,"inconclusive [inhibitor, single point]",
Cc1ccc(NS(=O)(=O)c2cc(C(=O)N3CCN(C)CC3)ccc2C)cc1C,"inconclusive [inhibitor, partial curve, poor fit]",
COc1cc2cc(C(c3nnnn3Cc3ccc(F)cc3)N3CCCCCC3)c(=O)[nH]c2cc1OC (stereo unspecified),"inconclusive [inhibitor, single point]",
CC1=C(C(=O)OCC2CCCO2)C(c2ccc(C)o2)C2=C(CC(c3ccc(N(C)C)cc3)CC2=O)N1 (stereo unspecified),"inconclusive [inhibitor, partial curve]",
COc1ccc(CCN(C(=O)C(F)(F)F)C(C(=O)NC2CCCCC2)c2ccc(C)s2)cc1OC (stereo unspecified),active: 4.15 µM,
CC(C)C(=O)Nc1cccc(NC(=S)NC(=O)C(c2ccccc2)c2ccccc2)c1,active: 11.7 µM,
COc1cccc(CN2CCNC(=O)C2CC(=O)NCC2CCOCC2)c1 (stereo unspecified),,inactive: -1.18%
CCc1ccc(Nc2n[n+](-c3ccccc3)c(-c3ccc(SC)cc3)s2)cc1,"inconclusive [inhibitor, partial curve]",
